According to publication PMC6426595:
These are yes or no findings as the source states them, for the method shown. For some assays here: Binding seen in cells or lysates may run through a third protein. Some results given as binding are weak or reduced against the parent protein; the word gives no strength. For some assays here: Tags and fused reporters may be left off the sequences shown.

By UniProt entry, the sequences of proteins in these tests, tags left out. Where a name states a change or a piece, a line headed by the entry shows the natural chain unless it says otherwise.
UniProt P08659: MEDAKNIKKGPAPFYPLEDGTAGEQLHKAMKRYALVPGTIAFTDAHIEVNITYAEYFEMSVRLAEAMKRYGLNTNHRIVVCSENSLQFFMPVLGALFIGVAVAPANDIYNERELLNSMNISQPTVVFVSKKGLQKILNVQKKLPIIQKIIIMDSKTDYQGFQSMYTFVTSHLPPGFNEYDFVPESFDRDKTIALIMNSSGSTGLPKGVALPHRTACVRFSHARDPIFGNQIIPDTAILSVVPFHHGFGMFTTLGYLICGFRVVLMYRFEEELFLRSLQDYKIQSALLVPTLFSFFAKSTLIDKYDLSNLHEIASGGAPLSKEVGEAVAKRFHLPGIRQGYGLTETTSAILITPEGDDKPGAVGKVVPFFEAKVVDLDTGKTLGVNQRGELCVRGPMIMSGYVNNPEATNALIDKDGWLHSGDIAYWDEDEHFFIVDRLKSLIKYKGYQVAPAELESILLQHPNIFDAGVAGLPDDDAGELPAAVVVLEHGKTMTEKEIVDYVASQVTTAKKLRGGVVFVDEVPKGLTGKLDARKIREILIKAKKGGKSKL
UniProt P54132: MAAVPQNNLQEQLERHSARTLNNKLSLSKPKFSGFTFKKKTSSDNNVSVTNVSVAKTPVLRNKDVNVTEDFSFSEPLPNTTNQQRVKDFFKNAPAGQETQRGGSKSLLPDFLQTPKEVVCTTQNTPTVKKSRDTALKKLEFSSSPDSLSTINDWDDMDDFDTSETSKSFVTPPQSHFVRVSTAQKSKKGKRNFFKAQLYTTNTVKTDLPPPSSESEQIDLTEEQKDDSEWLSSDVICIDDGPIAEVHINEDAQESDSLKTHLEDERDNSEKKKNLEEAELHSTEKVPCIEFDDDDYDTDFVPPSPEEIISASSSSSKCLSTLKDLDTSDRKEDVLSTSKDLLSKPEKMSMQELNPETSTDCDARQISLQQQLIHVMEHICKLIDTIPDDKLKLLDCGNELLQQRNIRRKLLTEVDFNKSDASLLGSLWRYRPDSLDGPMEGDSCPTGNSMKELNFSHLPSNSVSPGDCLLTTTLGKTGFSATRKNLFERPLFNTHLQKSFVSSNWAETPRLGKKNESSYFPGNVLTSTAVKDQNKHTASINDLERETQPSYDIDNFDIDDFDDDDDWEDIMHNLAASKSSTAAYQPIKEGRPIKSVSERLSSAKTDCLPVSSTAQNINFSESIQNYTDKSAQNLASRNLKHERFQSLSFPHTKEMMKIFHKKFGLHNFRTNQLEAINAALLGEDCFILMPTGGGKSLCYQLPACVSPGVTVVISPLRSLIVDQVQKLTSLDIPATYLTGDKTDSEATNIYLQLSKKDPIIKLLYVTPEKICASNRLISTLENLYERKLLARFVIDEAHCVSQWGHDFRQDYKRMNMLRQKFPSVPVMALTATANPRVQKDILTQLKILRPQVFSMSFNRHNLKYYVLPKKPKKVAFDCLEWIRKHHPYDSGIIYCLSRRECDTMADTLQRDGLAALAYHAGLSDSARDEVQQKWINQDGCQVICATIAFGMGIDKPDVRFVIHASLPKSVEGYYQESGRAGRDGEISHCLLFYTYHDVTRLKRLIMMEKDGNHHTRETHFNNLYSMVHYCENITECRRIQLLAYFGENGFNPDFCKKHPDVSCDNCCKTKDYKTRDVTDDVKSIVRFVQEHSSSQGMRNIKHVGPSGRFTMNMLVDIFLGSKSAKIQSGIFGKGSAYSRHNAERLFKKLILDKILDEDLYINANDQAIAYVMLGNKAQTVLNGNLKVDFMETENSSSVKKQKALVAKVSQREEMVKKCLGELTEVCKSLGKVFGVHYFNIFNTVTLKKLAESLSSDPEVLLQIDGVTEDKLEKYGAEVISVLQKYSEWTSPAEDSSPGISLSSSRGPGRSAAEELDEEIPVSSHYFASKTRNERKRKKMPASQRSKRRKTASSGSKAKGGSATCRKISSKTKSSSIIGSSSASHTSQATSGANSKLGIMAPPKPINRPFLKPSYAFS

Columns and labels:
[1] = target: T1, GST-E1 (353-649), HPV11 (human papillomavirus type 11 (HPV11)) (UniProt P04014); test: pull-down; purified GST-E1 fragments or GST alone as bait, in vitro-translated BLM, E2 or luciferase as prey; ethidium bromide included in binding reactions as a control for contaminating DNA; only the target purified
T1 sequence: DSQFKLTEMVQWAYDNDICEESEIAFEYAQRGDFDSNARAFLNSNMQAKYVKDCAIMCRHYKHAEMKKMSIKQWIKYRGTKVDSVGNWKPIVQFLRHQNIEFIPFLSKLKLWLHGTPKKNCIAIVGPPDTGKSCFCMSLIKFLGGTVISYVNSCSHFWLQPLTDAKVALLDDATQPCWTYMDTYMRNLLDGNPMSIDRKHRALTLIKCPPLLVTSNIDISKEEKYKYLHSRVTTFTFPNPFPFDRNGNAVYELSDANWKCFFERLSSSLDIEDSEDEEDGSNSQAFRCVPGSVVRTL

[2] = target: GST-E1 (191-649), HPV11 (human papillomavirus type 11 (HPV11)) (UniProt P04014); test: as above
[3] = target: T2, HPV11 E1 (yeast two-hybrid bait, fused to the GAL4 DNA-binding domain) (human papillomavirus type 11 (HPV11)) (UniProt P04014); test: two-hybrid; yeast; E1 baits fused to the GAL4 DNA-binding domain (pAS1) against a human lymphocyte cDNA library in pACT2 (GAL4 activation domain); beta-galactosidase activity measured
T2 sequence: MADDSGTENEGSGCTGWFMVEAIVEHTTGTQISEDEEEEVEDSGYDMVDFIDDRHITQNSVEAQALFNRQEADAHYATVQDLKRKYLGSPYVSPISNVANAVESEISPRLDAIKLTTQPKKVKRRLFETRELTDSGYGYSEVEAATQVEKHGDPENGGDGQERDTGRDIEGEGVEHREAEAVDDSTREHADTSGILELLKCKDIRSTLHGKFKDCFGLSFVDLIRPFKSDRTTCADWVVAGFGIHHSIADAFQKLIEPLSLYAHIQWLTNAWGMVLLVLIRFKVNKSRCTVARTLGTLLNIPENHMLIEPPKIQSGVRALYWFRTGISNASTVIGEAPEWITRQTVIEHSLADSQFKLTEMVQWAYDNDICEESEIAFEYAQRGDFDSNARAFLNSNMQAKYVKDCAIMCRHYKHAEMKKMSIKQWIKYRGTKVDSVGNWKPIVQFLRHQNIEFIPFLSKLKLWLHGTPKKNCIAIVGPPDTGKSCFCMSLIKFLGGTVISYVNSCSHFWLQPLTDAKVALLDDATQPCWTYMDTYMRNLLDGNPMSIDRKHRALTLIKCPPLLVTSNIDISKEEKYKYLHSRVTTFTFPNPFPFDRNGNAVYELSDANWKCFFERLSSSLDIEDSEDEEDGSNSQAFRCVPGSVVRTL

**Q.** For “firefly luciferase, in vitro translated (from UniProt P08659 1-550) (enzyme)”, which binding [1] is on record?
**A.** no binding

**Q.** And the binding [2]?
**A.** no binding

**Q.** With “BLM helicase fragment 1-514 (yeast two-hybrid prey, fused to the GAL4 activation domain) (from UniProt P54132 1-514) (domain or fragment)” as the substance, how does the binding [3] read?
**A.** binds

**Q.** “BLM helicase, in vitro translated (from UniProt P54132 1-1417)” was tested. Which binding [1] did it give?
**A.** binds

**Q.** What about the binding [2] of the same substance?
**A.** binds
